Data taken from the RNAGym collection of RNA variant scans (doi:10.7554/elife.90254).
The source gives no read counts; variants with many changes may rest on few reads.

B1: OR4K15 (parent)
chain: GUUAACGGUCAUAGGCCAUGGAAACUAGGAGCACCAUUUCGCUGCCAGUGAAGAAAUGAACAAAGAAAAUCUGGGCCAGGCAGGCAUCAAAAGAAAUAGUCUUGCGCUCAACCAGAAAGUCUGUAAUCAUUUUAAGGGUA

Variants of: B1
Experiment: self-cleavage, relative activity (ratio to wild type); higher = more cleavage; in vitro, sequencing; the parent is a self-cleaving ribozyme

With A23G U39A U100C as the variant, how does the self-cleavage read?
The self-cleavage was 1.73.

With A22G A62U A68G A69G G79A as the variant, how does the self-cleavage read?
The self-cleavage was 0.39.

Which self-cleavage does the source give for U49C A89G A96U here?
Its self-cleavage is 1.51.

For A64G A92G A140G, which self-cleavage is on record?
The self-cleavage was 2.21.

With U9C A117G U122C U130C as the variant, how does the self-cleavage read?
Its self-cleavage is 1.55.

Which self-cleavage does the source give for A56G U108C U132A here?
Its self-cleavage is 0.02.

For A5U U130C A135U, which self-cleavage is on record?
Its self-cleavage is 1.69.

Which self-cleavage does the source give for A13G A92G C109U here?
Its self-cleavage is 0.89.

Which self-cleavage does the source give for A5U A66G U100A here?
The self-cleavage was 0.48.

With A63G A68G A92U as the variant, how does the self-cleavage read?
Its self-cleavage is 1.72.

With A33G A94G U131C as the variant, how does the self-cleavage read?
The self-cleavage was 0.89.

For U43A A54G U57C A68G G119A, which self-cleavage is on record?
The self-cleavage was 2.52.

With U43C A51U U100C U102A as the variant, how does the self-cleavage read?
The self-cleavage was 1.82.

For U19C A27G A60G, which self-cleavage is on record?
Its self-cleavage is 0.93.

For A5G A30U U102C, which self-cleavage is on record?
Its self-cleavage is 1.41.

With U37C A55G U70A as the variant, how does the self-cleavage read?
Its self-cleavage is 0.54.

Which self-cleavage does the source give for A4U A68U U139C here?
Its self-cleavage is 1.36.

With U39C A51U U127C as the variant, how does the self-cleavage read?
Its self-cleavage is 0.71.

For G48U A54U U70G A92G, which self-cleavage is on record?
Its self-cleavage is 0.07.

Which self-cleavage does the source give for A5G U39C A56G A62G U100C here?
Its self-cleavage is 1.56.

With A47G A52U U87A U100C as the variant, how does the self-cleavage read?
Its self-cleavage is 1.55.

For U9C G44A U49C, which self-cleavage is on record?
The self-cleavage was 0.96.

For U39C A55G U127A, which self-cleavage is on record?
The self-cleavage was 2.69.

Which self-cleavage does the source give for A51U A78G A89G here?
The self-cleavage was 0.15.

Which self-cleavage does the source give for A52U A54G A125C here?
The self-cleavage was 0.56.

For U2A A66U A86G, which self-cleavage is on record?
Its self-cleavage is 1.02.

With A59U U100C A129G as the variant, how does the self-cleavage read?
The self-cleavage was 2.82.

For U19A A30G A90G, which self-cleavage is on record?
Its self-cleavage is 0.71.

Which self-cleavage does the source give for A92U A94G A117G here?
Its self-cleavage is 1.24.

Which self-cleavage does the source give for A18G U87C A90G here?
The self-cleavage was 0.19.

With U39C A62U A68G A98G as the variant, how does the self-cleavage read?
The self-cleavage was 0.4.

For A27U A59U U139A, which self-cleavage is on record?
Its self-cleavage is 1.43.

For A95G A111C U122A A129G, which self-cleavage is on record?
The self-cleavage was 0.01.

Which self-cleavage does the source give for A82U A95G U124A here?
Its self-cleavage is 0.29.

Which self-cleavage does the source give for A64G C81U U127G here?
The self-cleavage was 0.12.

Which self-cleavage does the source give for U43A A67G A78U U108C U122A here?
The self-cleavage was 0.02.

Which self-cleavage does the source give for A23G U38C A54G U57C U102C here?
Its self-cleavage is 1.56.

For A52G U103C A114U, which self-cleavage is on record?
Its self-cleavage is 0.03.

Which self-cleavage does the source give for U3A U72C U124C here?
The self-cleavage was 0.09.

For A51G A62G A67G U72A A92G A111G, which self-cleavage is on record?
Its self-cleavage is 0.04.

For A66G A82G U87C, which self-cleavage is on record?
The self-cleavage was 0.64.

For U2C A67G A95G, which self-cleavage is on record?
Its self-cleavage is 1.29.

With G53A A111G A116C as the variant, how does the self-cleavage read?
Its self-cleavage is 0.

Which self-cleavage does the source give for A5G A56G U108C C112A here?
Its self-cleavage is 0.03.

Which self-cleavage does the source give for U9G A27G U70A U87C U102C here?
The self-cleavage was 0.44.

Which self-cleavage does the source give for A22C U72A A82U A117G here?
Its self-cleavage is 0.31.

For U12C U37C U108C, which self-cleavage is on record?
The self-cleavage was 0.03.

For A47G A51G A55G U120C U130A, which self-cleavage is on record?
Its self-cleavage is 0.4.

Which self-cleavage does the source give for A5G A54G A55G A91G here?
The self-cleavage was 0.36.

For A30G A47G A51G A67G A111U, which self-cleavage is on record?
Its self-cleavage is 0.

For A18G U49A A118G, which self-cleavage is on record?
Its self-cleavage is 1.

With U39C A63G U70C as the variant, how does the self-cleavage read?
Its self-cleavage is 1.04.

With A23G A63G U127C A135G as the variant, how does the self-cleavage read?
The self-cleavage was 1.65.

For U49A U70G A110U A126U, which self-cleavage is on record?
Its self-cleavage is 0.4.

For A22G A47G A62G A89U U102C A114G, which self-cleavage is on record?
The self-cleavage was 0.22.

Which self-cleavage does the source give for A24U U122A U130G here?
The self-cleavage was 1.65.

For A30U U57C G58A A68U A95G U122G, which self-cleavage is on record?
Its self-cleavage is 2.94.

With U38C A63U A78G as the variant, how does the self-cleavage read?
Its self-cleavage is 0.22.

Which self-cleavage does the source give for A23G U100C U103C here?
The self-cleavage was 1.52.

Which self-cleavage does the source give for A23G A66G A82G U97C here?
The self-cleavage was 0.32.

Which self-cleavage does the source give for G29A A52C A69U A82G U127C here?
Its self-cleavage is 0.19.

Which self-cleavage does the source give for A5G U72C A90G here?
Its self-cleavage is 0.56.

Which self-cleavage does the source give for A47G U87G U108C here?
Its self-cleavage is 0.01.

Which self-cleavage does the source give for U3C A33G A67U A117G U124C here?
The self-cleavage was 0.65.

With A67G A91G U100C A111G as the variant, how does the self-cleavage read?
Its self-cleavage is 0.02.

With A24G A51U A54G A60G A67U A91G as the variant, how does the self-cleavage read?
The self-cleavage was 0.89.

Which self-cleavage does the source give for A51G A59G A92G A116G U122C here?
Its self-cleavage is 0.51.

Which self-cleavage does the source give for A18U U38C U72A here?
Its self-cleavage is 0.16.

For A66G C77U A140G, which self-cleavage is on record?
The self-cleavage was 2.2.

For A60G A69G A95G, which self-cleavage is on record?
The self-cleavage was 1.28.

With A67G A91G A95G A116G as the variant, how does the self-cleavage read?
The self-cleavage was 1.04.

For U2C A51G A91U, which self-cleavage is on record?
The self-cleavage was 1.51.

Which self-cleavage does the source give for A54C A69U A90U here?
Its self-cleavage is 2.25.

Which self-cleavage does the source give for U70C A90G A110C here?
Its self-cleavage is 0.13.

Which self-cleavage does the source give for A59G A63G A82U here?
Its self-cleavage is 0.24.

With A92G A98G U127C as the variant, how does the self-cleavage read?
The self-cleavage was 0.2.

For A36U A55G A59G U87C A90G, which self-cleavage is on record?
Its self-cleavage is 0.12.

Which self-cleavage does the source give for A66G A67G A94G A95G A117G here?
Its self-cleavage is 1.18.

With U9A A22G A23G U127A as the variant, how does the self-cleavage read?
Its self-cleavage is 1.5.

For A13U G31U A60G, which self-cleavage is on record?
Its self-cleavage is 0.94.

With U2C A24G A30G A55G A67G as the variant, how does the self-cleavage read?
The self-cleavage was 0.37.

Which self-cleavage does the source give for A30G A59G U87C here?
Its self-cleavage is 1.21.

Which self-cleavage does the source give for U49C G73U U108A A110G C113U here?
The self-cleavage was 0.02.
